Assay results as given in the RNAGym collection of RNA variant scans (doi:10.7554/elife.90254).
The source gives no read counts; variants with many changes may rest on few reads.

B1: LINE1-mini (parent)
chain: GGCAGAGCUCAACACAGCGUGGCAAAGUGGCUGUGGCUAGACUGCC

Variants of: B1
Experiment: self-cleavage, relative activity (ratio to wild type); higher = more cleavage; in vitro, sequencing; the parent is a self-cleaving ribozyme

| Variant | self-cleavage |
| --- | --- |
| GGCAGAGCUCAACAAAGCGUGGCAAAGAGGCUGGGGCUAGUCCGCC [C15A U28A U34G A41U U43C] | 0 |
| GGCAGAGCUCAACAGAGCUUUGCAUAGUGGCUGUGGCUAGACUUCC [C15G G19U G21U A25U G44U] | 0.02 |
| GGCAGAGCUCAACAGAAAGUGCCAAAGUGGAUGUGGCUAGACUGCC [C15G G17A C18A G22C C31A] | 0.04 |
| GGCAGAGCUCAACAGAGCGUGGCAGAGGGGCUGUGGCUAGACUGCC [C15G A25G U28G] | 0.04 |
| GGCAGAGCUCAACAGCGCGUGGCACAGUGGCUCUGGCUAGACUGCC [C15G A16C A25C G33C] | 0 |
| GGCAGAGCUCAACAGGGCGUCACAAAGUGGCUGUGGCUUGACUGCC [C15G A16G G21C G22A A39U] | 0.04 |
| GGCAGAGCUCAACAGUGCGUGGCAAAGUGGCUGAGGCUAGACUGCC [C15G A16U U34A] | 0.03 |
| GGCAGAGCUCAACAAAGCGCGGCAAAGUGGCUGUGGCUAGACUGCG [C15A U20C C46G] | 0.01 |
| GGCAGAGCUCAACAAAGCGUGGCAAAGUGGCUGUGGCGGGACUGCC [C15A U38G A39G] | 0.06 |
| GGCAGAGCUCAACAGACCGUAGCACAGUGGCUGUGGCUAGACUGCC [C15G G17C G21A A25C] | 0.05 |
| GGCAGAGCUCAACAGAGCGUGGCAUAGUGGCUGUGGCUACACUGGC [C15G A25U G40C C45G] | 0.01 |
| GGCAGAGCUCAACAGAGCGUGGCAACGUGGCUGUUGCUAGACUGCC [C15G A26C G35U] | 0.02 |
| GGCAGAGCUCAACAGACCGUGGCAAAGUGGCCGUAGCUAGACUGCC [C15G G17C U32C G35A] | 0.03 |
| GGCAGAGCUCAACAGAUCGGGGCAAAGUGGCUGUGGCUAGACUGCC [C15G G17U U20G] | 0.02 |
| GGCAGAGCUCAACAAAGCGGGGCAAAGUGGCUGUCGAUAGACCGCC [C15A U20G G35C C37A U43C] | 0.15 |
| GGCAGAGCUCAACAGAGAGCGGCAAAGUGGCUGUGGCUAGACUGAC [C15G C18A U20C C45A] | 0.02 |
| GGCAGAGCUCAACAGAGCGUGGUAAAGUAGCUGUGGCUACACUGCC [C15G C23U G29A G40C] | 0.04 |
| GGCAGAGCUCAACAGAGCGUGGUAAAGUUGCUGUGGAUGGACUCCC [C15G C23U G29U C37A A39G G44C] | 0.01 |
| GGCAGAGCUCAACAAAGCGUGGCAAAGAGGCAGUGGCUAGACUGCC [C15A U28A U32A] | 0.02 |

| Variant | self-cleavage |
| --- | --- |
| GGCAGAGCUCAACAAAGCGUGGCAAAGUGGCUGCGGCUAUACUGCC [C15A U34C G40U] | 0.03 |
| GGCAGAGCUCAACAGAGCGUGGCAAAGUGGAUGUGGCUAGAGUGCC [C15G C31A C42G] | 0.01 |
| GGCAGAGCUCAACAGAGCGUGGCAAAGUGGCUGUGGAUACACUGCA [C15G C37A G40C C46A] | 0.02 |
| GGCAGAGCUCAACAAAGCGUGGCAAAGUGGCGGUGACUAGACUGCC [C15A U32G G36A] | 0.03 |
| GGCAGAGCUCAACAAAGCGCGACAAAGUGGCUGUUGCUAGACGGCG [C15A U20C G22A G35U U43G C46G] | 0.01 |
| GGCAGAGCUCAACAGACCGUGGCAAAGUGGCUGUGGCUAGACUGGG [C15G G17C C45G C46G] | 0.01 |
| GGCAGAGCUCAACAGGGCUUGGCGAAGUGGCUGUGGCUAGACUGCC [C15G A16G G19U A24G] | 0.15 |
| GGCAGAGCUCAACAGAGCGUGGCAUAGUGACUGUGGCUAGACUGCC [C15G A25U G30A] | 0.02 |
| GGCAGAGCUCAACAGAGCCUGGCAAAGUGGCUGUUGCUAGACUGCC [C15G G19C G35U] | 0.06 |
| GGCAGAGCUCAACAAAGCGUGGCAAAGUGGCUGACGCUAGACUGCC [C15A U34A G35C] | 0.09 |
| GGCAGAGCUCAACAGAGCGUGGCAAAGUGGCUGUGGAUGGACUGCC [C15G C37A A39G] | 0.02 |
| GGCAGAGCUCAACAGAGUGUGACAAAGGGGCUGUGGCUCGACUGCC [C15G C18U G22A U28G A39C] | 0.02 |
| GGCAGAGCUCAACAGAGGGUGCCAAAGUGGCUGUGGCUAGACUGGC [C15G C18G G22C C45G] | 0.02 |
| GGCAGAGCUCAACAGUGCGUGGCCAACUGGCUGUGGCUAGACUGUC [C15G A16U A24C G27C C45U] | 0.01 |
| GGCAGAGCUCAACAGAGCCUGGGAAAUUGGCUGUGGCUAGGCUUCC [C15G G19C C23G G27U A41G G44U] | 0.07 |
| GGCAGAGCUCAACAGAGCGUGGCAAAGUGGCUGUGGAAAGACUGCC [C15G C37A U38A] | 0.04 |
| GGCAGAGCUCAACAGAGCGUGGCAAGGUGGCUUUGGCUAGACUGCU [C15G A26G G33U C46U] | 0.06 |
| GGCAGAGCUCAACAGAGAGUGGCAAAAUAGCUGUGGCUAGACUGCC [C15G C18A G27A G29A] | 0.02 |
| GGCAGAGCUCAACAGAACGUGGCAAAGUGGCUGUGGCUAGACUGCU [C15G G17A C46U] | 0.16 |

| Variant | self-cleavage |
| --- | --- |
| GGCAGAGCUCAACAGAGCGUAGCAAAGUGGCUGUGGUUAGACUGCC [C15G G21A C37U] | 0.01 |
| GGCAGAGCUCAACAGAGCGUGGCAAGGUGGCUGUGGUUAGACAGCC [C15G A26G C37U U43A] | 0.01 |
| GGCAGAGCUCAACAGAGCGUGGCGUAGUGGCAGUGGAGAGACUGCC [C15G A24G A25U U32A C37A U38G] | 0 |
| GGCAGAGCUCAACAGAGGGUGGCAAAGUGCCUGUGGCUAGACUGAU [C15G C18G G30C C45A C46U] | 0.02 |
| GGCAGAGCUCAACAGAGCGUAGCAAAGUAGCCGUGGCUAGACUGCC [C15G G21A G29A U32C] | 0.02 |
| GGCAGAGCUCAACAGAGCGUUGCAAAGUGGCUGUGGCUAGGCUGCC [C15G G21U A41G] | 0.06 |
| GGCAGAGCUCAACAGAGCCUAGCAAAGUGGCUGAGGCUACACUGCC [C15G G19C G21A U34A G40C] | 0.04 |
| GGCAGAGCUCAACAGAACGUGGCAAAGUGGCUGUGGCUAGACUACC [C15G G17A G44A] | 0.02 |
| GGCAGAGCUCAACAGAGCGUGGCAGUGCGGCUGUGGCUAGACUGCC [C15G A25G A26U U28C] | 0.15 |
| GGCAGAGCUCAACAGAGCAUGGCAAAGUGGCUCUGGCUAGACUGCC [C15G G19A G33C] | 1.55 |
| GGCAGAGCUCAACAGAGCGUAGCAACGUGGCUGUGGCUAGACUGCC [C15G G21A A26C] | 0 |
| GGCAGAGCUCAACAGAGCGUGGCCAAGUGGCUCUGGCUAGACUGCC [C15G A24C G33C] | 0.26 |
| GGCAGAGCUCAACAGAGCAUGGCAACGUGGCUCUGGCUAGACUGCC [C15G G19A A26C G33C] | 0.78 |
| GGCAGAGCUCAACAGAGCGUGGCAUAGUGGCGGUGGCUAGACUGCC [C15G A25U U32G] | 0.02 |
| GGCAGAGCUCAACAGAGCGUGGGACAGUGGCUGUGGCUAGACUGCC [C15G C23G A25C] | 0.01 |
| GGCAGAGCUCAACAGGGCGUGGUAAAGUGGCCGUGGCUAGACUGAC [C15G A16G C23U U32C C45A] | 0.03 |
| GGCAGAGCUCAACAGACCGUGGCAAAGGGGCUGUGGCUAAACUGCC [C15G G17C U28G G40A] | 0.03 |
| GGCAGAGCUCAACAGAGCGUGACAAUGUGGUUGUGGCUAGACUGCC [C15G G22A A26U C31U] | 0.02 |
